Biological target: hemagglutinin of influenza A virus H1N1 A/PR/8/1934 (influenza A virus A/PR/8/1934 (H1N1)) (UniProt P03452)
Assay: cell-based or functional assay

B1: monoclonal antibody 39.29 NWPP (antibody, V domains shown)
VH: EVQLVESGGGVVQPGKSLRLSCAASGLTFSSYAVHWVRQAPGKGLEWVTLISYDGANQYYADSVKGRFTISRDNSKNTVYLQMNSLRPEDTAVYYCAVPGPVFGIFPPWSYFDNWGQGILVTVSS
VL: EIVLTQSPATLSVSPGERATLSCRASQVISHNLAWYQQKPGQAPRLLIYGASTRASGIPARFSGSGSGTDYTLTITSLQSEDFAVYYCQHYSNWPPRLTFGGGTKVEIK
  in vitro IC50 (neutralization of virus infection of MDCK cells): 2 nM

Source: patent US20190023770A1
